# The supplement of paper PMC10338343
# ± gives the standard deviation. Only a part is listed here, and it is no random draw.
# Test system: MIWI (PIWIL1) piRISC loaded with piRNA #1 (30 nt)
# Experiment: pre-steady-state target cleavage rate (min^-1); MIWI and MILI are mouse PIWI proteins and EfPiwi is from a freshwater sponge; tags in brackets are library labels; higher = faster piRNA-guided slicing of the target
# Conditions: guide: piRNA #1 5'p-UGAGGUAGUAGGUUGUAUAGUAUCCAGAGG; auxiliary factor: 500 nM mouse GTSF1
# Summary of the method: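 At 33 °C in HEPES–potassium acetate buffer, a transcribed, DNA-blocked target RNA library […] was exposed for 0–8 or 0–960 min to 1 nM active affinity-purified piRISC carrying a single synthetic guide, with or without 500 nM GTSF1 partner protein. Uncleaved targets were sequenced and normalised to depth and to weakly complementary targets. With three trials pooled and k3 capped at 0.0001 min^-1, a burst-and-steady-state fit produced the pre-steady-state cleavage rate.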
# 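Further: 1 nM active piRISC with 0.1 nM target library at 33 °C single turnover.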
row,Sequence,pre-steady-state target cleavage rate
1,GGUCUGGAUACUAUACAUGGUACUACCUCA,0.0214 ± 0.0031
2,GGAGACCUAUGAUAUCAACCUACUACCUACA,< 0.0001
3,GGAGACCUAUCUAUACAACCUACUACCUCA [g2:g20:cont:t1A],1.12 ± 0.11
4,GGAGACCAUACUAUACUAGCUACUACCUCA,0.181 ± 0.019
5,GGAGACCAUACUAUACAACGUACUAGCUCA,0.125 ± 0.024
6,GGUCUGUAUACUAUACAACCUACUACCUCA,1.71 ± 0.12
7,GGAGUGGAUACUAUACAACCUACAACCUCA,0.314 ± 0.037
8,GGAGACCUUAGUAUACAACCUACUACCUCA,0.627 ± 0.066
9,GGAGACCUAUGAUAUCAACUCUACUACCUCA,< 0.0001
10,CCUCUGGAUACUAUACAACCUACUACCACA,1.95 ± 0.14
11,GGAGUGGAUACUUUUCAACCUACUACCUCA,1.17 ± 0.11
12,GGAGACCUAUCUAUACAACCUACUAGCACA,0.132 ± 0.028
13,GGUCUGGAUACUAUUGUACCUACUACCUCA,0.0445 ± 0.0099
14,GCUCUGGAAACUAUAGAACCUACUACCUCA,0.894 ± 0.055
15,GGAGACCUAUCUAUACAACGUACUACCUCA,0.216 ± 0.029
16,GGUCUGGAUACUAUACAAGCUACUAGCUCA,0.13 ± 0.032
17,GGAGACCUAUGAAUACAAUCCUACUACCUCA,< 0.0001
18,GGACUGGAGACUAUACAACCUACUACCUCA,1.53 ± 0.1
19,GGAGACCUUACAAUACAUCCUACUACCUCA,0.189 ± 0.03
20,GGAGAGGAUACUUUAGAACCUACUACCUCA,0.919 ± 0.051

row,Sequence,pre-steady-state target cleavage rate
1,GGACUGGAUACUAUACAUCCUAGUACCUCA,0.318 ± 0.068
2,GCUCAGGAUUCUAUACAACCUACUACCUCA,1.87 ± 0.092
3,GGACUGGAUACUAUACUACCUACUACCUGA,0.5 ± 0.096
4,CGUCUGGAUACUAUACAACCUAGUACCUCA,0.164 ± 0.026
5,GGAGACCUUACUAUAGAACCUAGUACCUCA,0.0376 ± 0.0082
6,GGAGACGAUACAUAACAACCUACUACCUCA,0.33 ± 0.05
7,CCUCUGGAAACUAUACAACCUUCUACCUCA,0.773 ± 0.053
8,GGAGACGAUACUAUACAACCAAGUACCUCA,0.0472 ± 0.0085
9,GGUCUGGAUACUAUACAACCUACUUGCUCA,0.00368 ± 0.0029
10,GGUCUGGAUACUAUACAACCUACUACCUCC [g2:g28:cont:t1C],1.54 ± 0.11
11,GGAGACGAUACUAUACAACCAACUACCUGA,0.0948 ± 0.012
12,GGAGACCUAUGUAUACAAGCUACUACCUCA,0.118 ± 0.013
13,GGUCUGGAUACUAUACAACCUAGAUGGAGA [g9:g28:cont:t1A],< 0.0001
14,GGAGACCUAUCUAUACAACCUACUAGCUCA,0.517 ± 0.046
15,GGAGACGAUACUACACAACCUACUACCUCA,1.8 ± 0.12
16,GGAGACCUUUGUAUACAACCUACUACCUCA,0.0731 ± 0.0086
17,GGAGACCUAUCAAUACAUCCUACUACCUCA,0.0166 ± 0.0069
18,GGAGACCUAUGAUAUAAACCUACUACCUCA,< 0.0001
19,GGAGAGCAUACUAUACAACCUACUAGCUCA,0.276 ± 0.041
20,GCUCUGGAUACUAUACAACCUACUACCAGA,0.653 ± 0.065
